Measured values from the BET-seq Pho4 binding data (Le et al. 2018).
This is one part of the list. The energies were worked out here from pooled read counts, against the library average; single values are noisy.

target: T1, Pho4 (S. cerevisiae) (UniProt P07270); assay: relative binding free energy (BET-seq); higher = weaker binding; conditions: reference: library average
T1 sequence: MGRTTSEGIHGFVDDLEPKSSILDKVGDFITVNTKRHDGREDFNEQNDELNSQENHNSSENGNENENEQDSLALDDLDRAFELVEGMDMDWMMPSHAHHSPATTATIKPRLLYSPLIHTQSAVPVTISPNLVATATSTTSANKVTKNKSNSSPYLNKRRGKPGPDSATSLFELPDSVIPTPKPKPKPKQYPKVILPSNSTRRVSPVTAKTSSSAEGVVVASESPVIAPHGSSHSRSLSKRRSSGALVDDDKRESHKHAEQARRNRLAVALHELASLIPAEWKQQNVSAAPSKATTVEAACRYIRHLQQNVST

Row | Sequence | relative binding free energy [kcal/mol]
1 | AGAATCACGTGTTAAT | 0.15
2 | AATAGCACGTGGCATG | -0.08
3 | AAGAGCACGTGAGGAA | 0.25
4 | CGTGTCACGTGAGGGC | 0.23
5 | ATTCACACGTGTTTGT | -0.06
6 | ATTATCACGTGGGACG | 0.13
7 | AGATTCACGTGTATGG | 0.34
8 | CGTGGCACGTGAGTTT | 0.17
9 | GGTATCACGTGCAGTG | 0.24
10 | GGGCGCACGTGAGCTG | 0.09
11 | TTTAGCACGTGGAATG | 0.03
12 | TATAACACGTGGGTTT | -0.15
13 | TTCTACACGTGTTATG | 0.03
14 | GCTTTCACGTGAGGCG | 0.34
15 | TGAAACACGTGCTTGT | 0.14
16 | GTTTCCACGTGTATTT | 0.1
17 | GGAGTCACGTGGGTAG | 0.07
18 | AGTGTCACGTGCTGAT | -0.06
19 | TTTTTCACGTGAATAT | 0.47
20 | GGGTTCACGTGTAATG | 0.4
21 | ATATCCACGTGTGTTT | 0
22 | GAATTCACGTGGTGAG | 0.28
23 | ATTAGCACGTGAAAGG | 0.24

Row | Sequence | relative binding free energy [kcal/mol]
24 | CCCGTCACGTGGGGTG | -0.08
25 | TTTGGCACGTGACGGA | -0.18
26 | ATATTCACGTGCTGGA | 0.28
27 | TAGGCCACGTGGAGGT | -0.1
28 | AGCAGCACGTGGAAGG | 0.09
29 | GGTTGCACGTGGAAAT | 0.14
30 | GATGACACGTGGGCTG | -0.09
31 | ATCGGCACGTGGATGT | 0
32 | GTCGTCACGTGATATG | 0.24
33 | TCGCGCACGTGTTTGT | -0.14
34 | CTATGCACGTGATTGG | 0.15
35 | ATGTGCACGTGTCGAG | 0.05
36 | GGGCTCACGTGAAGTG | 0.34
37 | GTCGGCACGTGGTGCG | -0.17
38 | ATCTTCACGTGGATTT | 0.32
39 | TTGTGCACGTGCAGCG | -0.11
40 | ATATACACGTGGGGAA | -0.1
41 | CGGTTCACGTGTTAAG | 0.24
42 | TGTTCCACGTGGGGAC | 0.03
43 | GGTTTCACGTGCAGGA | 0.36
44 | GGGACCACGTGTTTGT | -0.12
45 | TCATGCACGTGTTTGG | -0.06
46 | GGTGCCACGTGCGTTT | -0.13

Row | Sequence | relative binding free energy [kcal/mol]
47 | TTCAACACGTGTTGGG | 0.13
48 | AGGGGCACGTGAACTT | 0.1
49 | ATCGGCACGTGGTCAT | -0.03
50 | AGGGACACGTGATTGG | 0.12
51 | GTTTACACGTGGAGAG | 0.11
52 | TATGACACGTGTCTGG | -0.05
53 | TTATGCACGTGGGACG | -0.17
54 | TTAGTCACGTGTGCTG | 0.08
55 | CTAGGCACGTGGGCAG | -0.35
56 | AATGTCACGTGGGCAG | -0.02
57 | AGGGGCACGTGGCGTA | -0.37
58 | TGTTTCACGTGTAGCA | 0.14
59 | AGTCGCACGTGGTTGT | -0.16
60 | TAGGACACGTGTTGGG | 0.07
61 | AGGAGCACGTGGCGTT | -0.14
62 | TTCAACACGTGGGGAA | 0.05
63 | GGGTCCACGTGACGGT | 0.15
64 | GGTCACACGTGGAGTT | 0.06
65 | GGCGGCACGTGTAGCT | 0.12
66 | ATTCGCACGTGCTGTT | -0.14
67 | GGTAGCACGTGTGCAT | -0.12
68 | TACTTCACGTGGTGGG | 0.17
69 | CGTGTCACGTGATGCG | 0.19

Row | Sequence | relative binding free energy [kcal/mol]
70 | GTTTACACGTGGTTTT | 0.11
71 | TGGTCCACGTGAAAGG | 0.33
72 | CGTTTCACGTGATGTG | 0.25
73 | GGTCTCACGTGGGATG | 0.1
74 | TGCGGCACGTGAGCGG | 0.24
75 | TATAACACGTGATTTG | 0.16
76 | ATATTCACGTGGGGCA | 0.1
77 | TGGTGCACGTGGCGAT | 0.02
78 | TCGCGCACGTGGGTAG | -0.28
79 | AGTTACACGTGATTGA | 0.24
80 | AATTGCACGTGGTCGT | -0.16
81 | AGCTGCACGTGTTTTA | -0.03
82 | GGGGACACGTGGGATA | -0.09
83 | ATGTGCACGTGCTGGA | 0.01
84 | ATTGACACGTGCATGT | -0.09
85 | AATGTCACGTGGAGTC | 0.11
86 | TATATCACGTGAAAGT | 0.29
87 | CTTGACACGTGGTAGA | -0.05
88 | AAAAGCACGTGTGGGC | 0.08
89 | TTATGCACGTGGAGAA | 0.08
90 | AGTGACACGTGAGATT | 0.22
91 | TAGTACACGTGAATGG | 0.3
92 | AGTTGCACGTGCAGAG | 0.06

Row | Sequence | relative binding free energy [kcal/mol]
93 | GTGTCCACGTGCTGTT | 0.01
94 | TGGGACACGTGGCATG | -0.13
95 | GGTTCCACGTGGGGTG | 0.01
96 | TACATCACGTGGGTTG | -0.1
97 | CAATACACGTGGGGTG | -0.11
98 | GTATCCACGTGAGGGT | 0.25
99 | GTGCGCACGTGGTAAT | -0.17
100 | AGGGTCACGTGTAATC | 0.28
101 | AAAGTCACGTGGTGGG | 0.07
102 | GTTAGCACGTGTGGTA | -0.03
103 | GGAAACACGTGCTGGG | 0.06
104 | TAGTTCACGTGGCTGT | 0.24
105 | TGTCACACGTGTGTAG | -0.02
106 | GTCTTCACGTGGATGA | 0.33
107 | GGATGCACGTGTGTCA | 0.02
108 | TAGGGCACGTGGATGT | -0.13
109 | TGTTGCACGTGCAGTA | -0.13
110 | TTATGCACGTGTTATG | 0.05
111 | TGTACCACGTGGTTGC | 0.09
112 | TATTGCACGTGTTACT | 0.03
113 | GAGGACACGTGGAAGT | 0.24
114 | AGCTTCACGTGTAGTT | 0.2
115 | TTGGCCACGTGAGGTG | 0.09
